In the supplement of paper PMC12217912:
The other results are listed elsewhere or left out. Sequences were assembled here from the parent chain. Inactive controls read about 0.05.

B1: TEV protease; numbered along this chain (parent)
chain: MGESLFKGPRDYNPISSSICHLTNESDGHTTSLYGIGFGPFIITNKHLFRRNNGTLVVQSLHGVFKVKDTTTLQQHLVDGRDMIIIRMPKDFPPFPQKLKFREPQREERICLVTTNFQTKSMSSMVSDTSCTFPSGDGIFWKHWIQTKDGQCGSPLVSTRDGFIVGIHSASNFTNTNNYFTSVPKNFMELLTNQEAQQWVSGWRLNADSVLWGGHKVFMVKPEEPFQPVKEATQL

Variants of: B1
Test: raw area under fraction-flipped curve 0-4 h after induction (AUC4h, not background-subtracted), DNA-recorder readout of cleavage of the substrate (dimensionless); higher = more cleavage of the substrate by the protease variant
Conditions: temperature: 34 °C; time window: 0-4 h after rhamnose induction
Procedure: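 In vivo DNA recorder in E. coli TOP10(DE3) ΔrhaA at 34 °C. Each TEVp single-site mutant (parent TEVp 0) is paired with a single-site variant of the 7-mer TEVs (canonical ENLYFQ|S). The substrate sits between flexible linkers in a Bxb1-sfGFP-TEVs-SsrA fusion, so cleavage stabilises Bxb1 and speeds flipping of a recombination array, read by NGS. The value is the raw area under the fraction-flipped curve over 0-4 h after rhamnose induction (AUC4h), with ≥20 reads per time point. It is not background-subtracted; inactive controls average about 0.047.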
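Note: Bxb1 expression induced with 0.2% (w/v) L-rhamnose at OD600 near 0.5, cultures sampled hourly, flipped fraction per protease–substrate barcode pair counted by paired-end Illumina sequencing.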

| Variant | area with substrate ENLYFAS | area with substrate ENLYFDS | area with substrate ENLYFES | area with substrate ENLYFFS | area with substrate ENLYFHS | area with substrate ENLYFIS | area with substrate ENLYFMS | area with substrate ENLYFNS | area with substrate ENLYFRS | area with substrate ENLYFSS | area with substrate ENLYFVS | area with substrate ENLYFYS | area with substrate ENLYFGS | area with substrate ENLYFKS | area with substrate ENLYFPS | area with substrate ENLYFTS | area with substrate ENLYFWS | area with substrate ENLYFLS | area with substrate ENLYFCS |
| --- | --- | --- | --- | --- | --- | --- | --- | --- | --- | --- | --- | --- | --- | --- | --- | --- | --- | --- | --- |
| MGESLFKGPRDYNPISSSICHLTNESDGHTTSLYGIGFGPFIITNKHLFRRNNGTLVVQSLHGVFKVKDTTTLQQHLVDGRDMIIIRMPKDFPPFPQKLKFREPQREERICLVTTNFQTKSMSSMVSDTSCTFPSGDGIFWKHWIQTKDGQCGSPLVSTRDGFIVGIHSASNFTNTNNYFTFVPKNFMELLTNQEAQQWVSGWRLNADSVLWGGHKVFMVKPEEPFQPVKEATQL [S182F] | 0.0524 | 0.0552 | 0.0562 | 0.0612 | 0.0406 | 0.0539 | 0.0648 | 0.0564 | 0.0501 | 0.056 | 0.0497 | 0.0392 | – | – | – | – | – | – | – |
| MGESLFKGPRDYNPISSSICHLTNESDGHTTSLYGIGFGPFIITNKHLFRRNNGTLVVQSLHGVFKVKDTTTLQQHLVDGRDMIIIRMPKDFPPFPQKLKFREPQREERICLVTTNFQTKSMSSMVSDTSCTFPSGDGIFWKHWIQTKDGQCGSPLVSTRDGFIVGIHSASNFTNTNNYFTHVPKNFMELLTNQEAQQWVSGWRLNADSVLWGGHKVFMVKPEEPFQPVKEATQL [S182H] | 0.0668 | 0.0638 | 0.0551 | – | 0.0538 | 0.0578 | 0.0472 | – | 0.0433 | – | – | 0.0383 | 0.0612 | 0.0491 | 0.0574 | 0.059 | 0.0379 | – | – |
| MGESLFKGPRDYNPISSSICHLTNESDGHTTSLYGIGFGPFIITNKHLFRRNNGTLVVQSLHGVFKVKDTTTLQQHLVDGRDMIIIRMPKDFPPFPQKLKFREPQREERICLVTTNFQTKSMSSMVSDTSCTFPSGDGIFWKHWIQTKDGQCGSPLVSTRDGFIVGIHSASNFTNTNNYFTSGPKNFMELLTNQEAQQWVSGWRLNADSVLWGGHKVFMVKPEEPFQPVKEATQL [V183G] | 0.0434 | – | 0.049 | 0.0572 | 0.0556 | – | 0.048 | 0.0365 | – | – | – | 0.0476 | – | 0.0551 | 0.0426 | – | 0.0637 | 0.0099 | – |
| MGESLFKGPRDYNPISSSICHLTNESDGHTTSLYGIGFGPFIITNKHLFRRNNGTLVVQSLHGVFKVKDTTTLQQHLVDGRDMIIIRMPKDFPPFPQKLKFREPQREERICLVTTNFQTKSMSSMVSDTSCTFPSGDGIFWKHWIQTKDGQCGSPLVSTRDGFIVGIHSASNFTNTNNYFTSVPANFMELLTNQEAQQWVSGWRLNADSVLWGGHKVFMVKPEEPFQPVKEATQL [K185A] | 0.0599 | – | 0.0643 | – | – | 0.0503 | 0.0721 | 0.0646 | – | – | 0.0653 | 0.0459 | – | – | 0.044 | – | – | – | 0.121 |
| MGESLFKGPRDYNPISSSICHLTNESDGHTTSLYGIGFGPFIITNKHLFRRNNGTLVVQSLHGVFKVKDTTTLQQHLVDGRDMIIIRMPKDFPPFPQKLKFREPQREERICLVTTNFQTKSMSSMVSDTSCTFPSGDGIFWKHWIQTKDGQCGSPLVSTRDGFIVGIHSASNFTNTNNYFTSVPVNFMELLTNQEAQQWVSGWRLNADSVLWGGHKVFMVKPEEPFQPVKEATQL [K185V] | 0.0589 | 0.0561 | 0.0822 | – | – | 0.0614 | – | – | – | – | 0.0764 | – | – | – | – | – | 0.0498 | – | – |
| MGESLFKGPRDYNPISSSICHLTNESDGHTTSLYGIGFGPFIITNKHLFRRNNGTLVVQSLHGVFKVKDTTTLQQHLVDGRDMIIIRMPKDFPPFPQKLKFREPQREERICLVTTNFQTKSMSSMVSDTSCTFPSGDGIFWKHWIQTKDGQCGSPLVSTRDGFIVGIHSASNFTNTNNYFTSVPKTFMELLTNQEAQQWVSGWRLNADSVLWGGHKVFMVKPEEPFQPVKEATQL [N186T] | 0.0616 | – | – | – | – | 0.0528 | 0.0475 | 0.0476 | – | 0.0429 | – | – | – | 0.053 | – | – | – | – | 0.0648 |
| MGESLFKGPRDYNPISSSICHLTNESDGHTTSLYGIGFGPFIITNKHLFRRNNGTLVVQSLHGVFKVKDTTTLQQHLVDGRDMIIIRMPKDFPPFPQKLKFREPQREERICLVTTNFQTKSMSSMVSDTSCTFPSGDGIFWKHWIQTKDGQCGSPLVSTRDGFIVGIHSASNFTNTNNYFTSVPKNFMLLLTNQEAQQWVSGWRLNADSVLWGGHKVFMVKPEEPFQPVKEATQL [E189L] | 0.0485 | 0.0568 | 0.053 | 0.0678 | – | 0.0576 | 0.0628 | 0.0588 | 0.0584 | 0.0667 | 0.0523 | 0.0552 | – | 0.0588 | 0.0513 | – | 0.0591 | – | – |
| MGESLFKGPRDYNPISSSICHLTNESDGHTTSLYGIGFGPFIITNKHLFRRNNGTLVVQSLHGVFKVKDTTTLQQHLVDGRDMIIIRMPKDFPPFPQKLKFREPQREERICLVTTNFQTKSMSSMVSDTSCTFPSGDGIFWKHWIQTKDGQCGSPLVSTRDGFIVGIHSASNFTNTNNYFTSVPKNFMETLTNQEAQQWVSGWRLNADSVLWGGHKVFMVKPEEPFQPVKEATQL [L190T] | 0.0705 | – | 0.0621 | 0.0717 | 0.0454 | 0.067 | 0.0745 | 0.0681 | 0.069 | – | – | 0.0521 | – | – | 0.081 | 0.0641 | – | – | – |
| MGESLFKGPRDYNPISSSICHLTNESDGHTTSLYGIGFGPFIITNKHLFRRNNGTLVVQSLHGVFKVKDTTTLQQHLVDGRDMIIIRMPKDFPPFPQKLKFREPQREERICLVTTNFQTKSMSSMVSDTSCTFPSGDGIFWKHWIQTKDGQCGSPLVSTRDGFIVGIHSASNFTNTNNYFTSVPKNFMELQTNQEAQQWVSGWRLNADSVLWGGHKVFMVKPEEPFQPVKEATQL [L191Q] | 0.0522 | 0.053 | 0.0623 | – | – | 0.054 | 0.0495 | – | 0.0397 | 0.0555 | 0.0611 | 0.0527 | – | – | – | 0.053 | 0.05 | – | – |
| MGESLFKGPRDYNPISSSICHLTNESDGHTTSLYGIGFGPFIITNKHLFRRNNGTLVVQSLHGVFKVKDTTTLQQHLVDGRDMIIIRMPKDFPPFPQKLKFREPQREERICLVTTNFQTKSMSSMVSDTSCTFPSGDGIFWKHWIQTKDGQCGSPLVSTRDGFIVGIHSASNFTNTNNYFTSVPKNFMELLTYQEAQQWVSGWRLNADSVLWGGHKVFMVKPEEPFQPVKEATQL [N193Y] | 0.0663 | – | 0.0679 | 0.0774 | 0.0682 | 0.0596 | 0.0606 | – | 0.0562 | – | – | – | – | – | 0.0825 | – | – | 0.0617 | 0.0545 |
